The inconclusive results got no clear call from the source; some entries with a clear call stand among them for comparison. Potencies beside an inconclusive call are fits to weak or partial responses and may not hold up. Active and inactive are the calls of the source. The call rests on the fitted dose curve; in most records, active means well fitted cell-killing curve with a large enough effect; inconclusive means small, poorly fitted or top-dose-only effect, or effect the other way; inactive means no such curve, though single readings can be large or run the other way.
Experiment: Viability qHTS for spleen associated tyrosine kinase inhibitor (SYKi) naive MV4-11 cells (AID 1963823); further: nearly all actives have a fitted effect of over 40% in size
Details: MV4-11 AML viability, CellTiter-Glo luminescence, 72 h; series mostly up to 45 µM; viability (% of control): at the top concentration
Summary of the method: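 In this viability screen, compounds acted on SYK inhibitor naive MV4-11 cells for three days (72 hr, 37 C). Remaining viable cells were measured by CellTiter-Glo luminescence following a 10 min room-temperature development.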
In the case of `CCOC(C(=O)OCCN(C)C)(c1ccccc1)c1ccccc1`, the Potency is reported as inconclusive: 33.5 µM [cytotoxic, single point]. For `C[C@@H](C1CC[C@@]2(O)C3=CC(=O)[C@@H]4C[C@@H](O)[C@@H](O)C[C@]4(C)[C@H]3CC[C@]12C)[C@H](O)CCC(C)(C)O` (some centres undefined), the “viability (% of control)” value was inactive: 69.5%. With `CCCOC(=O)c1cncn1C(C)c1ccccc1` (centres undefined) the Potency was inconclusive: 0.0084 µM [rising, full curve, poor fit]. For `Clc1ccccc1C(c1ccccc1)(c1ccccc1)n1cccn1`, the Potency was inconclusive: 18.6 µM [cytotoxic, partial curve]. In the case of `CCCCCCCCCCCCCCCC[N+](C)(C)C`, the Potency is reported as inconclusive: 0.841 µM [cytotoxic, full curve]. In the case of `CCCCN1[C@@H]2CC[C@H]1CC(OC(c1ccc(F)cc1)c1ccc(F)cc1)C2` (some centres undefined), the Potency is reported as inconclusive: 10.3 µM [cytotoxic, partial curve]. For `Cc1ncc(CNC(=O)N(CCCl)N=O)c(N)n1`, the “viability (% of control)” value was inactive: 103%. For `C#CC1(O)CCC2C3CCC4=CC(=O)CCC4=C3C=CC21C` (centres undefined), the Potency was inconclusive: 29.1 µM [cytotoxic, single point]. In the case of `CN1C(=O)[C@@H](NC(=O)c2cc3ccccc3[nH]2)N=C(c2ccccc2)c2ccccc21`, the Potency is reported as inconclusive: 21.1 µM [cytotoxic, partial curve].
Potency means the concentration at half of the fitted maximal effect; tags describe the fitted curve by direction and shape.
